Assays:
[1] = biological target: T1, TNFR1 wild type, full-length (WT FL), on transfected cells (UniProt P19438 30-455, limits assumed); test: flow cytometry on HEK293 cells expressing full-length TNFR1, 10 ug/ml DMS5541-biotin, Streptavidin-Alexa Fluor 647
T1 construct: whole, on cells; Doxycycline-inducible expression; The cells also carry endogenous TNFR1; also called TNFRl full length
T1 sequence (looked up): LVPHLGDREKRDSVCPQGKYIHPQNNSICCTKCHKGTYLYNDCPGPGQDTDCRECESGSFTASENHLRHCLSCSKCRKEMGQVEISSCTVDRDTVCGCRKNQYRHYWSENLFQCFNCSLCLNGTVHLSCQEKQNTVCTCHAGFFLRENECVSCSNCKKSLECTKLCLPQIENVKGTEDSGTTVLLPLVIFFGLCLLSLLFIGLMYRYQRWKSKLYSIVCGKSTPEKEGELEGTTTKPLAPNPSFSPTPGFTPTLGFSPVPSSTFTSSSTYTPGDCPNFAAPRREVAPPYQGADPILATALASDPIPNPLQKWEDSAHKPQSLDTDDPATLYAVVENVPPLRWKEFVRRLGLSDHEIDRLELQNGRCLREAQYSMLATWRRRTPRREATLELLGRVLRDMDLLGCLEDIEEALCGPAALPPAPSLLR

[2] = biological target: T2, TNFR1 C33Y, full-length (C33Y FL), on transfected cells (UniProt P19438 30-455, limits assumed); test: flow cytometry on transfected HEK293 cells
T2 construct: whole, on cells; Position 33 follows the TRAPS variant numbering; also called TRAPS mutant TNFRl C33Y
T2 sequence (looked up): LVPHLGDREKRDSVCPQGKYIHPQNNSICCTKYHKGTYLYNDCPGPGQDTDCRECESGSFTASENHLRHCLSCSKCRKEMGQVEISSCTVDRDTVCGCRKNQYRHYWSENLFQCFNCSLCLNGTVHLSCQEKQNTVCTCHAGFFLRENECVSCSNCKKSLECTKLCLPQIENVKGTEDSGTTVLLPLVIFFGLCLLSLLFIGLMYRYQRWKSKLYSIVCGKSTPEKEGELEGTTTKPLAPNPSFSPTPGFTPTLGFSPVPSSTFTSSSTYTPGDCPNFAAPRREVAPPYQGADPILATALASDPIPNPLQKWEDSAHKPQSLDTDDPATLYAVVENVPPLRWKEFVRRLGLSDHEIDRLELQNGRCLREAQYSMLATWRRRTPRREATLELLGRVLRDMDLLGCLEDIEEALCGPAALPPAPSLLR

[3] = biological target: T3, endogenously expressed TNFR1 on HEK293 cells (UniProt P19438 30-455, limits assumed); test: flow cytometry on HEK293 cells transfected with truncated TNFR1 (TR), 10 ug/ml DMS5541-biotin
T3 construct: whole, on cells; also called endogenous TNFRl; background TNFRl levels in HEK293 cells (TR cell line)
T3 sequence (looked up): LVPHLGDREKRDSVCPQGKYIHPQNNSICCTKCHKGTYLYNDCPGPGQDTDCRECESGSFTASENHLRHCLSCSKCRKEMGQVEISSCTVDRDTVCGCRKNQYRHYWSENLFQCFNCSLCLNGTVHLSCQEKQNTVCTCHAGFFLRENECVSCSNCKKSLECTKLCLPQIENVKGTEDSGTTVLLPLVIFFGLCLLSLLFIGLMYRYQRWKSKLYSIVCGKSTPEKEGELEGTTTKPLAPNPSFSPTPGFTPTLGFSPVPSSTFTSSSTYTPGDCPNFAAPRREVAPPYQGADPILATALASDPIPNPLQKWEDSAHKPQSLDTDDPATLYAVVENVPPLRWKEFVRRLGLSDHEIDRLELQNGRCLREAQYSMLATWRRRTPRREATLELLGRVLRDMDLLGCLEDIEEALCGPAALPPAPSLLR

Measured: binding result

B1: DMS5541 (bispecific antibody)
chain: EVQLLESGGGLVQPGGSLRLSCAASGFTFDKYSMGWVRQAPGKGLEWVSQISDTADRTYYAH[about 20 residues omitted]MNSLRAEDTAVYYCAIYTGRWVPFEYWGQGTLVTVSSASTDIQMTQSPSSLSASVGDRVTITCRASRPIGTTLSWYQQKPGKAPKLLILWNSRLQSGVPSRFSGSGSGTDFTLTISSLQPEDFATYYCAQAGTHPTTFGQGTKVEIKR
modifications: biotinylated with EZ-Link Sulfo-NHS-LS-Biotin for the flow cytometry of Example 1
notes: also called DMS5541-biotin; D S5541
binds: all assays above

Reference: patent WO2015104322A1 (dated 2015)
